# Patent US20070116784A1, “Imatinib combinations for head and neck cancers” (priority 2003, published 2007)
# What was measured:
# Test in all cases: Growth inhibition assay (SRB)
# Format in all cases: cell-based, human
# FaDu = conditions: 5-7 days
# Cal27 = conditions: Cal27, 5-7 days
# HN5 ACC primary culture = conditions: 5-7 days
# [1] = Homo sapiens, CAL-27, read-out: IC50
smiles,measurement,setting,value
COc1cccc2c1C(=O)c1c(O)c3c(c(O)c1C2=O)C[C@@](O)(C(=O)CO)C[C@@H]3O[C@H]1C[C@H](N)[C@H](O)[C@H](C)O1 [Adr],pIC50,FaDu; read-out: IC50,7.40
same,pIC50,Cal27; read-out: IC50,7.70
same,pIC50,HN5 ACC primary culture; read-out: IC50,7.10
"N.N.[Cl][Pt][Cl] [Cisp, cisplatin]",pIC50,FaDu; read-out: IC50,5.62
same,pIC50,Cal27; read-out: IC50,5.13
same,pIC50,HN5 ACC primary culture; read-out: IC50,5.48
"O=c1[nH]cc(F)c(=O)[nH]1 [Compound 5FU, 5 fluorouracil]",pIC50,"FaDu; Homo sapiens, read-out: IC50",5.43
same,pIC50,Cal27; [1],5.36
same,pIC50,"HN5 ACC primary culture; Homo sapiens, read-out: IC50",5.66
"Nc1ccn([C@@H]2O[C@H](CO)[C@@H](O)C2(F)F)c(=O)n1 [Gem, gemcitabine]",pIC50,"FaDu; Homo sapiens, read-out: IC50",8.39
same,pIC50,Cal27; [1],8.15
same,pIC50,"HN5 ACC primary culture; Homo sapiens, read-out: IC50",8.40
"CO[C@@]12[C@H](COC(N)=O)C3=C(C(=O)C(C)=C(N)C3=O)N1C[C@@H]1N[C@@H]12 [MMC, mitomycin C]",pIC50,FaDu; read-out: IC50,7.30
same,pIC50,Cal27; read-out: IC50,7.30
same,pIC50,HN5 ACC primary culture; read-out: IC50,6.14
"N[C@@H](Cc1ccc(N(CCCl)CCCl)cc1)C(=O)O [Mel, melphalan]",pIC50,"FaDu; Homo sapiens, read-out: IC50",5.19
same,pIC50,Cal27; [1],4.95
"CC(=O)O[C@H]1C(=O)[C@@]2(C)[C@H]([C@H](OC(=O)c3ccccc3)[C@]3(O)C[C@H](OC(=O)[C@H](O)[C@@H](NC(=O)c4ccccc4)c4ccccc4)C(C)=C1C3(C)C)[C@]1(OC(C)=O)CO[C@@H]1C[C@@H]2O [Taxol, 5(beta),20-Epoxy-1,2(alpha),4,7(beta), 10(beta), b 13(alpha)-hexahydroxytax-11-en-9-one4,10-diacetate 2-benzoate 13-ester with (2R ,3S )-N-benzoyl-3-phenylisoserine]",IC50,"FaDu; Homo sapiens, read-out: IC50",2.1 ng/mL
same,IC50,Cal27; [1],3.8 ng/mL
same,IC50,"HN5 ACC primary culture; Homo sapiens, read-out: IC50",2.4 ng/mL
"CC[C@]1(O)C[C@@H]2CN(CCc3c([nH]c4ccccc34)[C@@](C(=O)OC)(c3cc4c(cc3OC)N(C)[C@H]3[C@@](O)(C(=O)OC)[C@H](OC(C)=O)[C@]5(CC)C=CCN6CC[C@]43[C@@H]65)C2)C1 [VBL, vinblastin]",IC50,FaDu,0.1 ng/mL
same,IC50,Cal27,0.2 ng/mL
same,IC50,HN5 ACC primary culture,0.3 ng/mL

# pIC50: −log10 of the molar value. Where two headings read alike, the source gives them in different places.
